From the supplement of paper PMC6746778
The list shows a part of the results. Most values come without repeats; read them as rough.

Experiments:
Assay in all cases: proliferation Z-score within cell line (SRB, relative to all inhibitors screened on that line); triple-negative breast cancer lines and a kinase inhibitor library; SRB is the sulforhodamine B protein stain; higher = less growth inhibition (more resistant)
Conditions in all cases: concentration: 1 µM; 4 days
Bt20 = tested on: Bt20
Bt549 = tested on: Bt549
HCC1143 = tested on: HCC1143
HCC1806 = tested on: HCC1806
HCC1937 = tested on: HCC1937
HCC38 = tested on: HCC38
HCC70 = tested on: HCC70
Hs578T = tested on: Hs578T
MDA-MB-231 = tested on: MDA-MB-231
MDA-MB-435s = tested on: MDA-MB-435s
MDA-MB-436 = tested on: MDA-MB-436
MDA-MB-453 = tested on: MDA-MB-453
MDA-MB-468 = tested on: MDA-MB-468
SKBR7 = tested on: SKBR7
SUM1315MO2 = tested on: SUM1315MO2
SUM149PT = tested on: SUM149PT
SUM159PT = tested on: SUM159PT
SUM185PE = tested on: SUM185PE
SUM229PE = tested on: SUM229PE
SUM52PE = tested on: SUM52PE
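Note: Single-dose primary screen of a 378-member kinase inhibitor library in 96-well plates, with growth read as absorbance of protein-bound SRB dye after TCA fixation.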

Structure (SMILES) | proliferation Z-score within cell line (Bt20) | proliferation Z-score within cell line (Bt549) | proliferation Z-score within cell line (HCC1143) | proliferation Z-score within cell line (HCC1806) | proliferation Z-score within cell line (HCC1937) | proliferation Z-score within cell line (HCC38) | proliferation Z-score within cell line (HCC70) | proliferation Z-score within cell line (Hs578T) | proliferation Z-score within cell line (MDA-MB-231) | proliferation Z-score within cell line (MDA-MB-435s) | proliferation Z-score within cell line (MDA-MB-436) | proliferation Z-score within cell line (MDA-MB-453) | proliferation Z-score within cell line (MDA-MB-468) | proliferation Z-score within cell line (SKBR7) | proliferation Z-score within cell line (SUM1315MO2) | proliferation Z-score within cell line (SUM149PT) | proliferation Z-score within cell line (SUM159PT) | proliferation Z-score within cell line (SUM185PE) | proliferation Z-score within cell line (SUM229PE) | proliferation Z-score within cell line (SUM52PE)
COC[C@H]1OC(=O)c2coc3c2[C@@]1(C)C1=C(C3=O)[C@@H]2CCC(=O)[C@@]2(C)C[C@H]1OC(C)=O [Wortmannin] | 0.694 | 0.866 | 0.561 | 0.281 | 0.303 | 0.724 | 0.709 | 0.521 | 0.916 | 1.08 | 0.738 | 0.732 | 1.05 | 1.16 | 0.806 | 0.955 | 0.743 | 0.71 | 0.573 | 0.826
Cn1cc(C2=C(c3cn(C4CCN(Cc5ccccn5)CC4)c4ccccc34)C(=O)NC2=O)c2ccccc21 | -0.181 | 0.511 | -1.61 | -0.427 | -0.224 | -0.23 | -0.653 | 0.537 | 0.964 | 0.575 | -0.937 | 0.435 | 0.888 | 0.533 | 0.485 | 0.223 | -0.156 | 0.397 | 0.0644 | 0.499
CCN1CCN(C(=O)Cc2ccc(Nc3ncc(F)c(Nc4ccc(C(=O)Nc5ccccc5Cl)cc4)n3)cc2)CC1 [Aurora A Inhibitor I] | -0.747 | -0.473 | -0.987 | -0.69 | -1.78 | -0.277 | -1.91 | -0.0166 | 0.0623 | -0.413 | -1.89 | -1.38 | -1.28 | -0.853 | -1.02 | -0.169 | -1.33 | -0.233 | -0.545 | -0.899
COc1ccc(N(C(=O)Oc2c(C)cccc2C)c2ccnc(Nc3ccc(N4CCN(C)CC4)cc3)n2)c(OC)c1 | 0.462 | 0.561 | 0.547 | 0.934 | 0.466 | 0.545 | 0.522 | 0.477 | 0.432 | 0.795 | 0.905 | 0.611 | 0.615 | 1.01 | -0.568 | 0.663 | 0.525 | 0.482 | 0.00309 | -0.313
O=c1[nH]c2ccc(Cl)cc2c(N[C@@H]2CN3CCC2CC3)c1-c1nc2ccccc2[nH]1 | -0.856 | -0.92 | -1.36 | -1.75 | -1.65 | -1.64 | -1.07 | -1.05 | -1.16 | -1.4 | -1.19 | -0.261 | -1.08 | -0.394 | -1.17 | -1.21 | -2.05 | -0.0613 | -1.63 | -0.695
CC(C)(C)c1cc(C=C(C#N)C#N)cc(Br)c1O | -0.107 | 0.249 | 0.345 | 0.336 | 0.445 | 0.226 | 0.278 | 0.319 | 0.62 | 0.469 | 0.128 | 0.45 | 0.395 | -0.385 | 0.21 | -0.163 | 0.205 | -0.258 | -0.252 | 0.00372
Cc1ccccc1-n1c(Cn2ncc3c(N)ncnc32)nc2cccc(C)c2c1=O | 0.456 | 0.592 | -0.00162 | 0.58 | 0.223 | 0.519 | -1.85 | 0.457 | 0.899 | 0.804 | -0.839 | 0.721 | 0.887 | 0.692 | 0.842 | 0.738 | -0.813 | 0.799 | 0.639 | 0.848
CC(C)(C)c1cc(C=C(C#N)C#N)cc(C(C)(C)C)c1O [Tyrphostin 9] | -0.916 | 0.512 | 0.536 | 0.606 | 0.486 | 0.371 | 0.544 | 0.484 | 0.218 | 0.0883 | 0.378 | 0.698 | -0.411 | 0.471 | -0.293 | 0.316 | 0.386 | -0.0125 | 0.856 | -0.171
